# Measurements from article PMC7819943, “Rice protein-binding microarrays: a tool to detect cis-acting elements near promoter regions in rice”.
# The list shows a part of the results.
# Molecular target: T1, OsWOX13 (Oryza sativa, UniProt Q5QMM3 1-267)
# T1 sequence: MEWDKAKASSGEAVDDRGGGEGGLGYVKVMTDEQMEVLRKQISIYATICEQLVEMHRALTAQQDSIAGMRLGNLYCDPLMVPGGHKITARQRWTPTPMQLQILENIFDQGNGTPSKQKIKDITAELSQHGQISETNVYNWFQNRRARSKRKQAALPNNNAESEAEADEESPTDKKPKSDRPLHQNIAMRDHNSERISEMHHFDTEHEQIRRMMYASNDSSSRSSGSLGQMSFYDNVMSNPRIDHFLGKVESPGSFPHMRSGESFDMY
# Assay: protein-binding microarray (RPBM); PBS, 2% BSA, 51.3 ng/ul salmon testes DNA, 50 uM zinc acetate, 200 nM TF, 25 C, 1 h; high values mean tight binding
# Conditions: protein: recombinant; tags: N-terminal polyhistidine and DsRed monomer fusion (pET32a); label: CyDye5-dUTP incorporated in the synthesized complementary strand; 3' TTTTT single-stranded linker to array surface; dsDNA, one strand shown
# Procedure, shortened: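 In PBS with 2% BSA, salmon testes DNA and 50 µM zinc acetate, 200 nM protein was incubated on a custom Agilent array at 25 °C for 1 h and then washed off. The array had been made double-stranded by primer extension with Cy5-dUTP and blocked with 2% BSA. The proteins were transcription factors fused N-terminally to polyhistidine and DsRed, expressed in E. coli BL21-CodonPlus and purified on Ni–NTA. The binding signal is per-feature fluorescence intensity (arbitrary units) from an Axon 4000B scanner.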
row,Sequence,binding signal
1,CCACTTTTAGATTTGACAATTAACTATTTGTCACTTTTAGCGGAGTCACCTAGTGCAG,23600 fluorescence intensity (a.u.)
2,ATCAGTAATTTATCAATGTACTAAGACATGTTTTACAACTCGGAGTCACCTAGTGCAG,7880 fluorescence intensity (a.u.)
3,CACATATACATTTTCCAGTTATTGGCGAGAATGAAACCAGCGGAGTCACCTAGTGCAG,3300 fluorescence intensity (a.u.)
4,TATAAATTGAAAATGTGTTAAAACCGATGTACTGTACTACCGGAGTCACCTAGTGCAG,26800 fluorescence intensity (a.u.)
5,CGCTGTTAATTCGTTATTTTGAGTATGTGTTTAGAGGTATCGGAGTCACCTAGTGCAG,3900 fluorescence intensity (a.u.)
6,CTTTAATTTGGTCCAATATTTCATAGAGACAATAATATGTCGGAGTCACCTAGTGCAG,11200 fluorescence intensity (a.u.)
7,CTAACACACAAACTATTCAATTTGCCAATAAATTGGTAGGCGGAGTCACCTAGTGCAG,8660 fluorescence intensity (a.u.)
8,AATAACTGATAAAAGATATATGATTTTGGAGAAATGTGTGCGGAGTCACCTAGTGCAG,26100 fluorescence intensity (a.u.)
9,TTAACATTGAATAATTGTTGATCTACAAGAAATTCCTGCCCGGAGTCACCTAGTGCAG,12000 fluorescence intensity (a.u.)
10,ATTGATGACTGAATTTCTCGGTCTCGGTCTTTTCGATCTCCGGAGTCACCTAGTGCAG,21300 fluorescence intensity (a.u.)
11,CATCCAAATTGGCAAAGGCCGCCTCTTTCTTTAATTAACCCGGAGTCACCTAGTGCAG,14100 fluorescence intensity (a.u.)
12,TGCTGGCTGAATACTACTACCATGTCATCTATAGCCATCACGGAGTCACCTAGTGCAG,25300 fluorescence intensity (a.u.)
13,TTTGCTAAATCATTGCGCAGATTAAAAGATGTAGAAAGCGCGGAGTCACCTAGTGCAG,4380 fluorescence intensity (a.u.)
14,CCAAAATTGACACGGAGAAAGAGCTGCAGCGATACCCCTCCGGAGTCACCTAGTGCAG,28000 fluorescence intensity (a.u.)
15,GTATAAAAGCCAATTATTGGAGAGTAAGGCTCCATTTTCGCGGAGTCACCTAGTGCAG,6310 fluorescence intensity (a.u.)
16,ATTACAATGATTTCCCTAAACTTCTTTTCACAGTGTTGCTCGGAGTCACCTAGTGCAG,10600 fluorescence intensity (a.u.)
17,TGGAAAATTTTAAGTTATGCTAAATATATGTGTCATGCATCGGAGTCACCTAGTGCAG,3360 fluorescence intensity (a.u.)
18,AACATATTGATTCGGTTAAGTACATGCCCATTAGGGTTGTCGGAGTCACCTAGTGCAG,5870 fluorescence intensity (a.u.)
19,GATTAAATTAATTAAGTATTAATACTAGCTATTACAAACTCGGAGTCACCTAGTGCAG,27100 fluorescence intensity (a.u.)
20,TGCTAATGACTGATTAATTAGGCTTAATAAATTTGTCTCGCGGAGTCACCTAGTGCAG,64800 fluorescence intensity (a.u.)
21,CGATGATTGTAATCTCATTGAACAGATGATCCTTCAGGATCGGAGTCACCTAGTGCAG,52400 fluorescence intensity (a.u.)

row,Sequence,binding signal
1,ATTTAATTGTATCATATATACTTAGTATTTACCAACATTTCGGAGTCACCTAGTGCAG,19500 fluorescence intensity (a.u.)
2,ATAGATGATTTGGAGTTAATAGTAAGCTATACTATTAAACCGGAGTCACCTAGTGCAG,25100 fluorescence intensity (a.u.)
3,TAAAACTTAATTAATGACGTGTTAAACGCTGCTTCGTTTTCGGAGTCACCTAGTGCAG,33300 fluorescence intensity (a.u.)
4,TTAATAGAAAATAAATTATTTAGAGTCCAACTCAATAAAACGGAGTCACCTAGTGCAG,10200 fluorescence intensity (a.u.)
5,AAAGTCAATAAATTAATTTAAAGACGTTTTCTAAAGTAATCGGAGTCACCTAGTGCAG,8930 fluorescence intensity (a.u.)
6,TACGTAATTGCAGATACAAATTATAGGGTTCAGGTACAAACGGAGTCACCTAGTGCAG,19300 fluorescence intensity (a.u.)
7,TACCAGAGATTGACCAAAATGAGTATTTAAGGATGAGGAGCGGAGTCACCTAGTGCAG,11200 fluorescence intensity (a.u.)
8,AGCATGACAGGGAGACAAATTAGACTTACTCCAATTTTCTCGGAGTCACCTAGTGCAG,14600 fluorescence intensity (a.u.)
9,TTCCTCTAATCACTAGTTATATATATATAGTTTGTCCCCTCGGAGTCACCTAGTGCAG,5920 fluorescence intensity (a.u.)
10,TTCTGAATTTTAATTAGCTTTATATTGTATTCCTATATGGCGGAGTCACCTAGTGCAG,13000 fluorescence intensity (a.u.)
11,GCGGATTAATTACTACTGGGCTGGCATTCTGATCACTTTGCGGAGTCACCTAGTGCAG,25400 fluorescence intensity (a.u.)
12,GAATGATTAGTATATATAAGTATGTAATATATCACGTCACCGGAGTCACCTAGTGCAG,37000 fluorescence intensity (a.u.)
13,TCATACGTGCCAATCAAATGATTATATTTAATTTGTAACTCGGAGTCACCTAGTGCAG,24200 fluorescence intensity (a.u.)
14,ACTGGTTGACTGACTTGTAATAACGTCTGCCATCTCTCTCCGGAGTCACCTAGTGCAG,5520 fluorescence intensity (a.u.)
15,GAGCCTAATTAGTCCATGATTAGTCATAGTGCTACAGTAACGGAGTCACCTAGTGCAG,45400 fluorescence intensity (a.u.)
16,AGTATACGTGACGAGACATTACTGCTGTGTCGCGAGGCCCCGGAGTCACCTAGTGCAG,3370 fluorescence intensity (a.u.)
17,TTATAATTTAAATTTTAACAACGGCTTATAAACTGTGAGGCGGAGTCACCTAGTGCAG,46800 fluorescence intensity (a.u.)
18,ATGTGATGGAAAAGTTGCAAGTTTGAAGAAAAGTTTTGGACGGAGTCACCTAGTGCAG,4700 fluorescence intensity (a.u.)
19,GTTATTATTGATGACATATGGGATAGGAAATCATGGGAATCGGAGTCACCTAGTGCAG,6050 fluorescence intensity (a.u.)
20,TCAATTTATTAAATTTGTAATAGTTAAAACTTAGCTAACTCGGAGTCACCTAGTGCAG,4070 fluorescence intensity (a.u.)
21,CGAGTACTCCTAGTCAATCAATCGATTTCTCTCTATGGCGCGGAGTCACCTAGTGCAG,10700 fluorescence intensity (a.u.)
